According to the supplement of paper PMC4967469:

Experiments:
Test in all cases: Viability of human cancer cell lines after 72 h of drug (GDSC screen)
Docetaxel = compound: CC(=O)O[C@@]12CO[C@@H]1C[C@H](O)[C@@]1(C)C(=O)[C@H](O)C3=C(C)[C@@H](OC(=O)[C@H](O)[C@@H](NC(=O)OC(C)(C)C)c4ccccc4)C[C@@](O)([C@@H](OC(=O)c4ccccc4)[C@H]21)C3(C)C [Docetaxel]; settings: top dose 0.0125 µM
Method: (§1)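 Human cancer cell lines in 384-well plates, medium with 10% serum, drug for 72 h over a 256-fold dose range (nine 2-fold or five 4-fold steps up to the top dose). Adherent lines were fixed and stained with the nucleic acid dye Syto60, suspension lines read with resazurin; signal relative to control wells, capped at 0 and 100%. One two-parameter sigmoid per drug and line, fitted in a mixed model over all curves with the slope shared within a line.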

AMG-706 = compound: CC1(C)CNc2cc(NC(=O)c3cccnc3NCc3ccncc3)ccc21 [AMG-706]; settings: top dose 2 µM; top dose inferred
Method: as §1

Cyclopamine = compound: CC1=C2C[C@H]3[C@@H](CC=C4C[C@@H](O)CC[C@@]43C)[C@@H]2CC[C@]12O[C@@H]1C[C@H](C)CN[C@H]1[C@H]2C [Cyclopamine]; settings: top dose 16 µM; top dose inferred
Method: as §1

JNK Inhibitor VIII = compound: CCOc1nc(NC(=O)Cc2cc(OC)ccc2OC)cc(N)c1C#N [JNK Inhibitor VIII]; settings: top dose 10 µM; top dose inferred
Method: as §1

NSC-207895 = compound: CN1CCN(c2ccc([N+](=O)[O-])c3no[n+]([O-])c23)CC1 [NSC-207895]; settings: top dose 20 µM; top dose inferred
Method: as §1

FTI-277 = compound: COC(=O)[C@H](CCSC)NC(=O)c1ccc(NC[C@@H](N)CS)cc1-c1ccccc1 [FTI-277]; settings: top dose 1.024 µM; top dose inferred
Method: as §1

YM155 = compound: COCC[n+]1c2c(n(Cc3cnccn3)c1C)C(=O)c1ccccc1C2=O [YM155]; settings: top dose 5.12 µM
Method: as §1

NVP-TAE684 = compound: COc1cc(N2CCC(N3CCN(C)CC3)CC2)ccc1Nc1ncc(Cl)c(Nc2ccccc2S(=O)(=O)C(C)C)n1 [NVP-TAE684]; settings: top dose 2 µM
Method: as §1

OSI-906 = compound: C[C@]1(O)C[C@@H](c2nc(-c3ccc4ccc(-c5ccccc5)nc4c3)c3c(N)nccn32)C1 [OSI-906]; settings: top dose 2.56 µM; top dose inferred
Method: as §1

SB-715992 = compound: Cc1ccc(C(=O)N(CCCN)[C@@H](c2nc3cc(Cl)ccc3c(=O)n2Cc2ccccc2)C(C)C)cc1 [SB-715992]; settings: top dose 0.128 µM; top dose inferred
Method: as §1

JQ1 = compound: Cc1sc2c(c1C)C(c1ccc(Cl)cc1)=N[C@@H](CC(=O)OC(C)(C)C)c1nnc(C)n1-2 [JQ1]
Method: as §1

Belinostat = compound: O=C(/C=C/c1cccc(S(=O)(=O)Nc2ccccc2)c1)NO [Belinostat]; settings: top dose 20 µM; top dose inferred
Method: as §1

CGP-60474 = compound: OCCCNc1cc(-c2ccnc(Nc3cccc(Cl)c3)n2)ccn1 [CGP-60474]; settings: top dose 0.256 µM; top dose inferred
Method: as §1

JNJ-26854165 = compound: c1ccc2c(CCNc3ccc(Nc4ccncc4)cc3)c[nH]c2c1 [JNJ-26854165]; settings: top dose 10 µM
Method: as §1

[1] = top dose 1 µM, screen: GDSC drug entry 1218, top dose inferred
[2] = top dose 2.56 µM, screen: GDSC drug entry 163

Cell Line | AUC (Docetaxel) | IC50 (Docetaxel) [nM] | AUC (AMG-706) | IC50 (AMG-706) [nM] | AUC (Cyclopamine) | IC50 (Cyclopamine) [nM] | AUC (JNK Inhibitor VIII) | IC50 (JNK Inhibitor VIII) [nM] | AUC (NSC-207895) | IC50 (NSC-207895) [nM] | AUC (FTI-277) | IC50 (FTI-277) [nM] | AUC (YM155) | IC50 (YM155) [nM] | AUC (NVP-TAE684) | IC50 (NVP-TAE684) [nM] | AUC (OSI-906) | IC50 (OSI-906) [nM] | AUC (SB-715992) | IC50 (SB-715992) [nM] | AUC (JQ1; [1]) | IC50 (JQ1; [1]) [nM] | AUC (JQ1; [2]) | IC50 (JQ1; [2]) [nM] | AUC (Belinostat) | IC50 (Belinostat) [nM] | AUC (CGP-60474) | IC50 (CGP-60474) [nM] | AUC (JNJ-26854165) | IC50 (JNJ-26854165) [nM]
CMK (acute myeloid leukaemia, suspension) | 0.96 | > 12.5 | 0.99 | > 2000 | 0.935 | > 16000 | 0.98 | > 10000 | 0.832 | 10200 | 0.991 | > 1020 | 0.111 | 24 | 0.62 | 252 | 0.736 | 662 | 0.714 | 28.8 | 0.715 | 226 | 0.446 | 117 | 0.112 | 94.4 | 0.83 | 128 | 0.964 | > 10000
COLO-684 (endometrium, suspension) | 0.929 | > 12.5 | 0.965 | > 2000 | 0.97 | > 16000 | 0.981 | > 10000 | 0.814 | 12600 | 0.976 | > 1020 | 0.043 | < 20 | 0.956 | > 2000 | 0.981 | > 2560 | 0.824 | 88.7 | 0.9 | > 1000 | 0.825 | 1790 | 0.547 | 1700 | 0.77 | 109 | 0.936 | > 10000
COR-L95 (small cell lung carcinoma, adherent) | 0.924 | > 12.5 | 0.975 | > 2000 | 0.972 | > 16000 | 0.975 | > 10000 | 0.862 | > 20000 | 0.987 | > 1020 | 0.286 | 71.5 | 0.833 | 1590 | 0.906 | > 2560 | 0.932 | > 128 | 0.983 | > 1000 | 0.983 | > 2560 | 0.416 | 708 | 0.815 | 170 | 0.884 | > 10000
CW-2 (large intestine, adherent) | 0.956 | > 12.5 | 0.989 | > 2000 | 0.987 | > 16000 | 0.988 | > 10000 | 0.962 | > 20000 | 0.989 | > 1020 | 0.908 | > 5120 | 0.98 | > 2000 | 0.989 | > 2560 | 0.987 | > 128 | 0.988 | > 1000 | 0.989 | > 2560 | 0.47 | 1030 | 0.976 | > 256 | 0.849 | 8420

IC50 is the fitted dose that halves viability relative to control wells, and lower means more sensitive; where the fit passes the top or lowest dose, that dose stands as a limit. AUC, from the same fit, is the share of area under the viability curve across the 256-fold dose range: 1 means no effect, lower means more sensitive. For part of these data: The top dose, if marked as inferred, is not printed in the source and was worked back from the curve model. For part of these data: Drugs with an entry number were screened twice under separate entries, and the two screens often disagree.
